The results in this text go back to PubChem BioAssay AID602310 (National Center for Advancing Translational Sciences (NCATS), 2012).

Molecules are shown by their SMILES. In all, about 410,000 compounds went through this assay and about 310 (0.076%) were called active. Another 2% or so got no clear call; they are omitted. Calls come from the whole dose curve; as a rule, active = well fitted curve in the direction sought with a large enough effect; inconclusive = small, poorly fitted or top-dose-only effect; inactive = flat fitted curve, though single readings scatter. The list shows a part of the results, in another mix than the full data.
% is set by controls: 0 for no effect and ±100 for the full control effect; potency is the fitted concentration of half-maximal effect.

For the assay, the target named is DNA dC->dU-editing enzyme APOBEC-3G (Homo sapiens) (UniProt Q9HC16). Briefly: qHTS for Inhibitors of Vif-A3G Interactions: qHTS.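 For activity, negative = active: hits raise eYFP signal because A3G escapes Vif-driven loss.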 Note: nearly all actives have a fitted effect of over 60% in size. The following applies: HeLa A3G-eYFP + Vif (tagged APOBEC3G with the HIV-1 protein that degrades it), YFP fluorescence, overnight; series mostly up to 46.1 µM; activity, negative = active: at the top concentration. An excerpt: The recent discovery and characterization of host restriction factors, which provide a potent defense to invading retroviruses, has provided new targets for antiviral drug development. APOBEC3G (A3G) and APOBEC3F (A3F) are potent cytidine deaminases that block HIV-1 replication; HIV-1 expresses the Vif protein, which counteracts A3G and A3F by binding to them and inducing their proteasomal degradation. The Vif-A3G and Vif-A3F interactions provide two potential targets for development of small molecules which can interfere with the ability of Vif to degrade A3G or A3F. […] To identify inhibitors that can interfere with Vif mediated degradation of A3G and A3F, we have developed Hela cell lines that stably express A3G or A3F tagged with eYFP at the C-terminal end (A3G-eYFP or A3F-eYFP, respectively) and Vif. In the absence of an inhibitor, Vif induces degradation of A3G-eYFP and A3F-eYFP, and the cells are not fluorescent. In the presence of an inhibitor, it is expected that Vif will be unable to degrade A3G-eYFP and/or A3F-eYFP, resulting in an increase in yellow fluorescence. In this assays Vif A3G was screened against the Molecular Library Small Molecule Repository (MLSMR). NIH Chemical Genomics Center [NCGC] NIH Molecular Libraries Probe Centers Network [MLPCN] MLPCN Grant: MH093245 Assay Submitter (PI): Vinay Pathak, National Cancer Institute
UniProt Q9HC16, sequence (Q9HC16 whole entry, looked up): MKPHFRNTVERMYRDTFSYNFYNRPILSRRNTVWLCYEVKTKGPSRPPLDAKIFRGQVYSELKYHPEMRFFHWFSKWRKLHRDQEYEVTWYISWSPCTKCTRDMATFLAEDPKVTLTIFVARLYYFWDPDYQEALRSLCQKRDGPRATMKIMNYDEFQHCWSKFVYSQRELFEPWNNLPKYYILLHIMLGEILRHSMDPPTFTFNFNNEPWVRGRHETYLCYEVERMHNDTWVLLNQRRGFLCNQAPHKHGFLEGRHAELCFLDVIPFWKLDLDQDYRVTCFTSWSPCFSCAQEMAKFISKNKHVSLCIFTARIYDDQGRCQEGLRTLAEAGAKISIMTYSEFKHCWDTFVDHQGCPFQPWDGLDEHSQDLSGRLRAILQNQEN
5 uL of 700 cells/well of A3G-YFP cells are dispensed into black, clear bottom plates. The plates are incubated overnight at 37 deg C. 23 nL of compounds are added by pintool. The plates are incubated overnight at 37 deg C and then read on the TTP Acumen (Ex 488/ Em 500-530).
`CCC(C)Sc1ccc([C@@H]2[C@@H]3C(=O)N(CC)C(=O)[C@@H]3[C@]3(C(=O)OC)CCCCN23)cc1` (stereo partly specified): the “activity, negative = active” value was inactive: 4.31%.
Same read-out and setting: the same measure for `COc1ccccc1/C=C/C=N/n1c(-c2ccc(Cl)cc2)n[nH]c1=S`: inactive: -15.2%; for `COc1ccc(N2CCN(C(=O)c3ccc(CS(=O)c4cccc(C)c4)o3)CC2)cc1` (stereo unspecified): inactive: -27.2%.
As to `CCNc1ccc(Br)cc(C(=O)/C=C/c2ccccc2Cl)c1=O`, the Potency is active: 10 µM.
In the case of `COc1cc(-c2c(-c3ccc4c(c3)OCO4)noc2C)ccc1F`, the “activity, negative = active” value is inactive: -15.6%.
Turning to `CCSc1nnc(-c2sc3nnc(-c4ccccc4)c(-c4ccccc4)c3c2N)o1`, the Potency is active: 3.16 µM.
Turning to `COc1ccccc1C=Cc1ccnc2ccccc12`, the “activity, negative = active” value is inactive: -7.48%.
Still for that read-out and setting: the same measure for `Cc1cc(=S)[nH]c2ccccc12`: inactive: -3.41%.
In the case of `COc1ccc(-c2cc(C(F)(F)F)nc(S(C)(=O)=O)n2)cc1`, the “activity, negative = active” value was inactive: -29.4%.
In the case of `Oc1ccc(NCc2ccccc2OCc2ccccc2F)cc1`, the “activity, negative = active” value is inactive: -32%.
With `O=C(C[C@H]1C/C=C\CC[C@H](Cc2ccc(F)cc2)C(=O)O[C@@H](c2ccccc2)CNC1=O)N[C@@H](CO)Cc1ccccc1`, the “activity, negative = active” value was inactive: -29.6%.
In the case of `COC1=CC(=O)CC(C)C12Oc1c(Cl)c(OC)cc(OC)c1C2=O` (stereo unspecified), the “activity, negative = active” value is inactive: -29.8%.
Turning to `CCCN(CCC)c1nc2c(C)cccn2c(=O)c1/C=C1/SC(=S)N(Cc2ccco2)C1=O`, the Potency was active: 3.16 µM.
For `COc1ccc(-c2cn(Cc3ccc(C(=O)c4ccccc4)cc3)nn2)cc1`, the “activity, negative = active” value was inactive: -24.5%.
`CC1CC(C)(C)Nc2ccc(OC(=O)c3ccco3)cc21` (stereo unspecified): the Potency was active: 22.4 µM.
In the case of `CCOc1cc(/C=C2/COc3ccccc3C2=O)ccc1OCC(=O)N(C)C`, the “activity, negative = active” value is inactive: -1.62%.
For the compound `O=C(C[C@H]1C/C=C\CC[C@@H](Cc2ccc(F)cc2)C(=O)O[C@@H](c2ccccc2)CNC1=O)N[C@@H](CO)Cc1ccccc1`, the “activity, negative = active” value is inactive: 1.21%.
For the compound `CCN(CC)c1ccc(/C=C(\C#N)c2ccccn2)cc1`, the Potency is active: 10 µM.
As for `CCOC(=O)c1c(-c2ccc(C)cc2)csc1NC(=O)/C(C#N)=C/c1ccc(O)c(OC)c1`, the Potency was active: 10 µM.
`COc1ccc(/C=N/NC(=O)c2cccnc2)cc1CSc1ccccn1`: the Potency was active: 7.08 µM.
As to `COc1cc(/C=C2\CCc3ccccc3C2=O)cc(OC)c1OC`, the “activity, negative = active” value is inactive: -14.8%.
`Cc1ccccc1NC(=O)COC(=O)c1ccc(S(C)(=O)=O)c([N+](=O)[O-])c1`: the “activity, negative = active” value is inactive: -21.3%.
On to `COc1ccc(S(=O)Cc2ccc(C(=O)N3CCN(c4cccc(C)c4C)CC3)o2)cc1` (stereo unspecified), for which the “activity, negative = active” value is inactive: 2.46%.
As for `COc1cc(OC)c(OC)cc1/C=C/c1ccnc2ccccc12`, the “activity, negative = active” value is inactive: -7.09%.
Consider `COc1ccc(-n2nc3c(N4CCC(C(=O)N5CCC(C)CC5)CC4)nnc(C)c3c2C)cc1`, for which the “activity, negative = active” value was inactive: -4.34%.
For `CCOc1ccccc1NC(=O)COC(=O)CC(C)(C)CC1=NS(=O)(=O)c2ccccc2N1`, the “activity, negative = active” value is inactive: -22.6%.
